{"source": "paper PMC12040169", "about": "(PLOS Biology, 2025)", "note": "Some of the results follow.", "data": [{"system": "T1, C. trachomatis L2/434/Bu expressing GFP (CTL2-GFP)", "T1 construct": "L2/434/Bu GFP intracellular growth in HeLa cells", "parameters": "species or system HeLa; C. trachomatis total inclusion area by high-content imaging, normalised to DMSO", "details": "total inclusion area; 28.5 h, 10 µM; inhibitor", "in_short": "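Following bulk GFP and resorufin fluorescence reads, infected cells were fixed, Hoechst-stained and imaged on a high-content platform. Inclusion total area and number per well served as growth proxies; nuclei counts indicated host viability. MICs were derived as for the fluorescence assay.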", "values": [{"molecule": "O=C(O)CSc1nnc(-c2ccncc2)n1-c1ccccc1", "note": "[CBK264426]", "% of control remaining": 97.5639}, {"molecule": "c1nc(N2CCOCC2)c2cn[nH]c2n1", "note": "[CBK016811]", "% of control remaining": 91.7969}, {"molecule": "Cc1cc(F)ccc1S(=O)(=O)N1CCC2(CC1)CNC(=O)C2", "note": "[CBK283354]", "% of control remaining": 101.377}, {"molecule": "COc1ccc(OC)c2c1cc(C(=O)NC[C@H]1CC[C@H](C(=O)O)CC1)n2C", "note": "[CBK286636]", "% of control remaining": 96.8191}, {"molecule": "O=[N+]([O-])c1ccc(-c2csc(Nc3ccc4c(c3)OCO4)n2)cc1", "note": "[CBK262448B]", "% of control remaining": 81.0378}, {"molecule": "CN(C)C(CC(=O)Nc1cccc(Cl)c1Cl)C(=O)O", "note": "(stereo not drawn) [CBK266952]", "% of control remaining": 84.2569}, {"molecule": "Cc1cc(/C=C(/C#N)c2ccc(C(=O)O)cc2)c(C)n1-c1ccc(S(N)(=O)=O)cc1", "note": "[CBK268896]", "% of control remaining": 103.747}, {"molecule": "O=C(NCCO)c1cccc(-c2cncc(NCCCN3CCOCC3)n2)c1", "note": "[CBK065432]", "% of control remaining": 123.083}, {"molecule": "O=C(COc1ccc2ccccc2c1)Nc1ccc(S(=O)(=O)N2CCCCC2)cc1", "note": "[CBK263765]", "% of control remaining": 94.0143}, {"molecule": "Cc1sc(-c2cnccn2)nc1O", "note": "[CBK067738]", "% of control remaining": 88.8687}, {"molecule": "CCN(CC)c1c(C)nc2ccc(C(=O)N(C)CCN(C)C)cn12", "note": "[CBK145950]", "% of control remaining": 95.7067}, {"molecule": "CC(=O)N1CCc2nc(C)nc(N(C)Cc3cnn(C(C)C)c3)c2CC1", "note": "[CBK306968]", "% of control remaining": 100.576}, {"molecule": "O=C(N[C@H]1CCN2C(=O)N(c3ccc(Br)cc3)C(=O)[C@@H]2C1)c1cccnc1", "note": "[CBK289557]", "% of control remaining": 102.725}, {"molecule": "O=C(Nc1ccncc1)c1cc(-c2ccncc2)nc2ccccc12", "note": "[CBK287787]", "% of control remaining": 88.2464}, {"molecule": "O=C(NC(c1ccc(-c2ccccc2)cc1)c1cnccn1)C1CCN(CCOc2ccc3ccccc3c2)CC1", "note": "(stereo not drawn) [CBK147982]", "% of control remaining": 98.888}, {"molecule": "CC1CN(S(=O)(=O)N2CCOCC2)CCN1S(=O)(=O)N1CCOCC1", "note": "(stereo not drawn) [CBK269011]", "% of control remaining": 85.9034}, {"molecule": "O=C(O)C(Cc1ccccc1)N1C(=O)/C(=C/C=C/c2ccccc2)SC1=S", "note": "(stereo not drawn) [CBK263496]", "% of control remaining": 105.515}, {"molecule": "CC(=O)c1ccc(NC(=O)N[C@H]2CO[C@H]3[C@@H]2OC[C@H]3OCC(N)=O)cc1", "note": "[CBK289460]", "% of control remaining": 105.239}, {"molecule": "C=CCn1c2cc(C)oc2c2cnn(CC(=O)N(C)C)c(=O)c21", "note": "[CBK283326]", "% of control remaining": 105.565}, {"molecule": "CN(C)CCN1C(=O)C(O)=C(C(=O)c2ccc(S(=O)(=O)N(C)C)cc2)C1c1cccnc1", "note": "(stereo not drawn) [CBK264729]", "% of control remaining": 103.385}, {"molecule": "C[C@@H](c1ccccc1)N1C(=O)[C@@H]2CN(S(=O)(=O)c3cccs3)CCN2C1=O", "note": "[CBK289635]", "% of control remaining": 113.942}, {"molecule": "O=C(Cn1c(=O)n(Cc2ccco2)c2ncccc21)N1CCCC1", "note": "[CBK284708]", "% of control remaining": 114.073}, {"molecule": "COc1cccc2c1cc(C(=O)NCCCC1CCOC1)n2C", "note": "(stereo not drawn) [CBK283284]", "% of control remaining": 101.783}, {"molecule": "O=C(Nc1c(F)cc(F)cc1OC1CCNCC1)c1coc2c1C(=O)CCC2", "note": "[CBK050331T]", "% of control remaining": 71.4259}, {"molecule": "CCCS(=O)(=O)n1c(=O)n(CC(=O)c2ccccc2OC)c2ccccc21", "note": "[CBK106498]", "% of control remaining": 90.43}, {"molecule": "O=C(c1ccc(N2CCN(C3CC(=O)N(Cc4cccs4)C3=O)CC2)cc1)c1cccnc1", "note": "(stereo not drawn) [CBK269040]", "% of control remaining": 88.7494}, {"molecule": "O=S(=O)(Nc1ccc(C(F)(F)F)cc1Cl)c1cc(Br)c(Cl)s1", "note": "[CBK057196]", "% of control remaining": 32.1841}, {"molecule": "O=C(Cc1ccc(Cl)cc1)Nc1ccc(Oc2ccc3c(c2)C(=O)NC3=O)cc1", "note": "[CBK265869]", "% of control remaining": 120.562}, {"molecule": "Cc1cc(-c2nnc(SCCC(=O)Nc3ccccc3)o2)no1", "note": "[CBK268737]", "% of control remaining": 113.492}, {"molecule": "CCOc1ccc(/C=C2\\SC(=O)NC2=S)cc1", "note": "[CBK027996]", "% of control remaining": 83.9209}, {"molecule": "CC(C)C(=O)N1CC2(CCN(Cc3cc(=O)[nH]c(=O)[nH]3)CC2)c2ccccc21", "note": "[CBK144602T]", "% of control remaining": 118.265}, {"molecule": "O=C(Nc1ccc(-c2nc3ccccc3o2)c(O)c1)c1ccc(-c2ccc([N+](=O)[O-])cc2)o1", "note": "[CBK263416]", "% of control remaining": 73.3936}, {"molecule": "COc1c(C)cccc1C(=O)N1CCCCC1c1ncc(C(=O)Nc2ccccc2)c(C)n1", "note": "(stereo not drawn) [CBK285841]", "% of control remaining": 128.234}, {"molecule": "COc1ccc(S(=O)(=O)Nc2ccc(C(=O)O)cc2)cc1OC", "note": "[CBK034048]", "% of control remaining": 78.4137}, {"molecule": "O=C(OCc1ccccc1)N1CCC(C(=O)N(CCc2ccccc2)Cc2ccccc2)CC1", "note": "[CBK171978]", "% of control remaining": 100.016}, {"molecule": "CC(=O)CSc1nc2c(c(=O)n(C)c(=O)n2C)n1CCCc1ccccc1", "note": "[CBK269581]", "% of control remaining": 89.134}, {"molecule": "CCOC(=O)Cn1c(CN2CCCCC2C)nc2c1c(=O)n(C)c(=O)n2C", "note": "(stereo not drawn) [CBK269382]", "% of control remaining": 103.385}, {"molecule": "Cc1cccnc1C(c1ccccc1)N(C)C(=O)C1CCN(C(=O)OCc2ccccc2)CC1", "note": "(stereo not drawn) [CBK060522]", "% of control remaining": 103.464}, {"molecule": "Cc1cccc(Nc2nc3nonc3[nH]/c2=N\\N=C/c2cn(Cc3ccc(Cl)cc3Cl)c3ccccc23)c1C", "note": "[CBK262378]", "% of control remaining": 94.1905}]}]}
